Laboratory results published in paper PMC12425082.
These are yes or no findings as the source states them, for the method shown. Binding seen in cells or lysates may run through a third protein. Some entries that bind do so weakly or less than the wild type. Tags and fused reporters may be left off the sequences shown. Values belong to the binder of their own block, whether it stands above or below them.

Chains of the proteins cited; added tags and fusions are not shown.
UniProt P51149: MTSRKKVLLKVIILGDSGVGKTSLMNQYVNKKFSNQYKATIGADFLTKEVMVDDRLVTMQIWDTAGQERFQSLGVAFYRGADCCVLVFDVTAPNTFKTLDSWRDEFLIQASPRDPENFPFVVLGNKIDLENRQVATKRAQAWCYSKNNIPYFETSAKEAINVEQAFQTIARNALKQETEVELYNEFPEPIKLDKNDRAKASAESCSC
UniProt Q9Y4G2: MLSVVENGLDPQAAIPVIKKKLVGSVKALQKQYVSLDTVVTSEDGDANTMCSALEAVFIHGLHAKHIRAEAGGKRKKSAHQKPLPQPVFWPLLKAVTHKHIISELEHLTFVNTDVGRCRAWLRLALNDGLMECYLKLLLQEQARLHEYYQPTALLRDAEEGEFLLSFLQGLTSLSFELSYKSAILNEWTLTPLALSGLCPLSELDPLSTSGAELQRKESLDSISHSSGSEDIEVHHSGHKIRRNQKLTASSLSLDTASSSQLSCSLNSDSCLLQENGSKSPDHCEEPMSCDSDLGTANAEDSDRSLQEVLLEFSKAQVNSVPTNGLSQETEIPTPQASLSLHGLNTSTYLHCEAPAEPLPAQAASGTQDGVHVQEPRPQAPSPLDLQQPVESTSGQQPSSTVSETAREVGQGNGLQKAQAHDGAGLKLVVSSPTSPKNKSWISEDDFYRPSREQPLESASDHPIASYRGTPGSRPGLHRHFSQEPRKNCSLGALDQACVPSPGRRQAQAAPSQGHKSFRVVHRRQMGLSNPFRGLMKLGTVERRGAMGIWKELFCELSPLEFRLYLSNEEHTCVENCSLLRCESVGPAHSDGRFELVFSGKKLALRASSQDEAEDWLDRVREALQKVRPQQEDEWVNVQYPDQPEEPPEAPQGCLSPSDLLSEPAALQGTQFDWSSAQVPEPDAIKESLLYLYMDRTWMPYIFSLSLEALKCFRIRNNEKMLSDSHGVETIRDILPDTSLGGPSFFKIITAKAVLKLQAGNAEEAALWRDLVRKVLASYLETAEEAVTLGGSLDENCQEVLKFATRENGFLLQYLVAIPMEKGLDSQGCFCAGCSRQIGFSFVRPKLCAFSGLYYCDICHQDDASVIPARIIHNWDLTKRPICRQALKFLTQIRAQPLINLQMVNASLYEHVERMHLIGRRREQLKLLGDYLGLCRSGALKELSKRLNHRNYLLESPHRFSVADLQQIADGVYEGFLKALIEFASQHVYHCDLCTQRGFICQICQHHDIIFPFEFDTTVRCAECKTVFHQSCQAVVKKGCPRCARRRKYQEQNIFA
UniProt Q9GZU1: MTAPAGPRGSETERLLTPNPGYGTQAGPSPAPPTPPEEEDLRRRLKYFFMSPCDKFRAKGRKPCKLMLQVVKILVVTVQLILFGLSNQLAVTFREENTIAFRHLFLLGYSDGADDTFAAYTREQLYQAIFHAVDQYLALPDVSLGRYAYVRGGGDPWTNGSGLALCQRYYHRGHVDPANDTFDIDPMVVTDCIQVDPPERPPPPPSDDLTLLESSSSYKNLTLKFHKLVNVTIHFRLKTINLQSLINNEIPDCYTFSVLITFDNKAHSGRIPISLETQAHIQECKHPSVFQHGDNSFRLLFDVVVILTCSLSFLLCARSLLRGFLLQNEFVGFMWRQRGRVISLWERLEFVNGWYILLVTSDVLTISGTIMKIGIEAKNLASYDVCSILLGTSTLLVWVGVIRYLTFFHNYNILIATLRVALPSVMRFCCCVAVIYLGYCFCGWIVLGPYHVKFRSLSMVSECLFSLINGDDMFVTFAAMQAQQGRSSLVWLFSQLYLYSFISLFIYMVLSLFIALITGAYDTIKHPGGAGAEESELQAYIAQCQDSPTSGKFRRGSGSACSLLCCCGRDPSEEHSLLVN
UniProt Q9NVJ2: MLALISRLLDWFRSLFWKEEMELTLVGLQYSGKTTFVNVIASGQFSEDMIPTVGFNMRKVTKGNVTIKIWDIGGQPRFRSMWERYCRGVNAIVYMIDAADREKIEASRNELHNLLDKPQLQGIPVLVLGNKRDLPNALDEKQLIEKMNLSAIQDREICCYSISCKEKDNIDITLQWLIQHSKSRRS

Legend:
Experiment in all cases: co-IP; BON cells co-expressing GFP-tagged candidates and 3xHA or 3xFlag Munc13-4; lysis in 50 mM HEPES pH 7.5, 150 mM NaCl, 1% Triton X-100; GFP selector (GFP nanobody) beads, 4°C; western blot
[1] = target: GFP-tagged Rab7 (UniProt P51149)
[2] = target: GFP-tagged PLEKHM1 (in BON cells) (UniProt Q9Y4G2)
[3] = target: T1, GFP-tagged VPS39 (UniProt Q96JC1)
T1 sequence: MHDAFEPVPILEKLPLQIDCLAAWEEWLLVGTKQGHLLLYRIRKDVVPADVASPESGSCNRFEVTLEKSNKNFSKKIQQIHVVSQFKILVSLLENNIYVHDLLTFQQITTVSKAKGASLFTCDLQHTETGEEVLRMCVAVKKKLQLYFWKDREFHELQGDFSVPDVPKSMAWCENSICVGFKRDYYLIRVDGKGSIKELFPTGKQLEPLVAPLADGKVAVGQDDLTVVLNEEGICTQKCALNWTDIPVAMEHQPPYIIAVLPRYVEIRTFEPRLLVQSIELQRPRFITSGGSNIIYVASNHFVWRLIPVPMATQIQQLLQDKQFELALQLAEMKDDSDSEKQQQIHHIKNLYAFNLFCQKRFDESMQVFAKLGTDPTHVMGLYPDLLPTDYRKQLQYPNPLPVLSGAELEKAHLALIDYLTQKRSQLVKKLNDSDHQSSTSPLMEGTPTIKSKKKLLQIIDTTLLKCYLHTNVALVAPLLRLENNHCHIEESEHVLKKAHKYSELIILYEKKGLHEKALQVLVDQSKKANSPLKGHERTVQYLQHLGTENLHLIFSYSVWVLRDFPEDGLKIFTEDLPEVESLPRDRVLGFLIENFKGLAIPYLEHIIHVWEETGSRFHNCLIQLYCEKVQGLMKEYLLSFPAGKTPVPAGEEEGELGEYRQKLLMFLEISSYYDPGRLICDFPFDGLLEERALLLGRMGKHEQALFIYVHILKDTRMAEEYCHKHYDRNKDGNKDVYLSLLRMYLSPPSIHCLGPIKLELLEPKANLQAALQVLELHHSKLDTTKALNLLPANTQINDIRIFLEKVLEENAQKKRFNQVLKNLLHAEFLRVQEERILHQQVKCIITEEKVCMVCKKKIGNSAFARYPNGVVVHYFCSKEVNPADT

[4] = target: T2, GFP-tagged YKT6 (UniProt O15498)
T2 sequence: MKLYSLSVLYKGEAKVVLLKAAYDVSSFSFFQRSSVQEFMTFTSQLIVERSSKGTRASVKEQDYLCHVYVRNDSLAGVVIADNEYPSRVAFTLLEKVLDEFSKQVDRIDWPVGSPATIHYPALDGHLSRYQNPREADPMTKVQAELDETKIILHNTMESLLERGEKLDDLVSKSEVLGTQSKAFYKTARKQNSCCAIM

[5] = target: T3, GFP-tagged VPS18 (UniProt Q9P253)
T3 sequence: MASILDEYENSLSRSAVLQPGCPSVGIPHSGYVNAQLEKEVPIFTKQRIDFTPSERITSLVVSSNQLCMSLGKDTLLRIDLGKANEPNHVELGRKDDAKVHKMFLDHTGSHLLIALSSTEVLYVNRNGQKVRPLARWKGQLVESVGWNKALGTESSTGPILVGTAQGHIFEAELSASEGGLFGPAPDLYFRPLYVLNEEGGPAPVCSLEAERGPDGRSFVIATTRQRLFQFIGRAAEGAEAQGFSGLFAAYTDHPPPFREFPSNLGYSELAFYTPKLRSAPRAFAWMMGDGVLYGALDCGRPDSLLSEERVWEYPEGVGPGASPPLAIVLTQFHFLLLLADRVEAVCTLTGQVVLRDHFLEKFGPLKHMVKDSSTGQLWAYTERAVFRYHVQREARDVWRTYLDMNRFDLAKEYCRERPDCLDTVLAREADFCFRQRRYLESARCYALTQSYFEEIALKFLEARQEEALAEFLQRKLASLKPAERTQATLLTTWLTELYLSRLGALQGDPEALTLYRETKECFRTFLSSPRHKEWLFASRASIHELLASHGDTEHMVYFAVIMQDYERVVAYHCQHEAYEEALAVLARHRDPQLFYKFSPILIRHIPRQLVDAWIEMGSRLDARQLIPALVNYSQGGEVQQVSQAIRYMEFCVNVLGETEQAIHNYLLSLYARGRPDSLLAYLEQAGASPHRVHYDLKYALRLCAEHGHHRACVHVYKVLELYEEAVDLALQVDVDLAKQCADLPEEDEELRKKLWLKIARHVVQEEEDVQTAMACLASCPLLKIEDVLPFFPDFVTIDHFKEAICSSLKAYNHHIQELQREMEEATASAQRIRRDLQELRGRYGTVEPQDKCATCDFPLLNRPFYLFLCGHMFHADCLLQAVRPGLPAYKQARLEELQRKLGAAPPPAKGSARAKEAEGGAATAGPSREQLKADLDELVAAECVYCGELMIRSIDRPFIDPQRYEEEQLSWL

[6] = target: GFP-tagged MCOLN1 (UniProt Q9GZU1)
[7] = target: GFP-tagged ARL8B (UniProt Q9NVJ2)
[8] = target: T4, GFP-tagged VPS16 (UniProt Q9H269)
T4 sequence: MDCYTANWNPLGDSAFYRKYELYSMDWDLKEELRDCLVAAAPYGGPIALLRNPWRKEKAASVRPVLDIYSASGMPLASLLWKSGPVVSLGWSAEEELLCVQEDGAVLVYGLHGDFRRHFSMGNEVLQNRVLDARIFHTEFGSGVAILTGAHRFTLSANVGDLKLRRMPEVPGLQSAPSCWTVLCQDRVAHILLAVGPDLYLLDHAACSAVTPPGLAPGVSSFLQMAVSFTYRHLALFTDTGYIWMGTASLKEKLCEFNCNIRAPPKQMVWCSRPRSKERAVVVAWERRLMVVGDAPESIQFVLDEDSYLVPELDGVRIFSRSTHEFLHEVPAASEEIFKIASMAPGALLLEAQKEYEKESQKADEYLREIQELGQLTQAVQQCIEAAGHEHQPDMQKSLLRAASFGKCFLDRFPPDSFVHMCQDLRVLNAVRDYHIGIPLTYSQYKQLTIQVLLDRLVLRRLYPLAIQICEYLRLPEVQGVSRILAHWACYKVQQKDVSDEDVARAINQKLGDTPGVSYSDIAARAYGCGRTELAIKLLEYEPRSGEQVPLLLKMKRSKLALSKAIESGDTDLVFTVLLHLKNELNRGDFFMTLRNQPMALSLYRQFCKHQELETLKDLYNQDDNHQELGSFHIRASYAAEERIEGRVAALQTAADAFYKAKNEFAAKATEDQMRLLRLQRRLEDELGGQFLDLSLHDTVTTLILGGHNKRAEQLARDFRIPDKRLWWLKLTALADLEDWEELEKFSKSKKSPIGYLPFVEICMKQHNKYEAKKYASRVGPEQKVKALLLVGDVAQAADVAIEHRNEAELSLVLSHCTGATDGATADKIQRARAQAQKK

- binding [1]: no binding
- binding [2]: binds
- binding [3]: binds
- binding [4]: no binding
- binding [5]: binds
- binding [6]: no binding
B1: HA-tagged Munc13-4 (protein, UniProt Q70J99 1-1090)
chain: MATLLSHPQQRPPFLRQAIKIRRRRVRDLQDPPPQMAPEIQPPSHHFSPEQRALLYEDALYTVLHRLGHPEPNHVTEASELLRYLQEAFHVEPEEHQQTLQRVRELEKPIFCLKATVKQAKGILGKDVSGFSDPYCLLGIEQGVGVPGGSPGSRHRQKAVVRHTIPEEETHRTQVITQTLNPVWDETFILEFEDITNASFHLDMWDLDTVESVRQKLGELTDLHGLRRIFKEARKDKGQDDFLGNVVLRLQDLRCREDQWYPLEPRTETYPDRGQCHLQFQLIHKRRATSASRSQPSYTVHLHLLQQLVSHEVTQHEAGSTSWDGSLSPQAATVLFLHATQKDLSDFHQSMAQWLAYSRLYQSLEFPSSCLLHPITSIEYQWIQGRLKAEQQEELAASFSSLLTYGLSLIRRFRSVFPLSVSDSPARLQSLLRVLVQMCKMKAFGELCPNTAPLPQLVTEALQTGTTEWFHLKQQHHQPMVQGIPEAGKALLGLVQDVIGDLHQCQRTWDKIFHNTLKIHLFSMAFRELQWLVAKRVQDHTTVVGDVVSPEMGESLFQLYISLKELCQLRMSSSERDGVLALDNFHRWFQPAIPSWLQKTYNEALARVQRAVQMDELVPLGELTKHSTSAVDLSTCFAQISHTARQLDWPDPEEAFMITVKFVEDTCRLALVYCSLIKARARELSSGQKDQGQAANMLCVVVNDMEQLRLVIGKLPAQLAWEALEQRVGAVLEQGQLQNTLHAQLQSALAGLGHEIRTGVRTLAEQLEVGIAKHIQKLVGVRESVLPEDAILPLMKFLEVELCYMNTNLVQENFSSLLTLLWTHTLTVLVEAAASQRSSSLASNRLKIALQNLEICFHAEGCGLPPKALHTATFQALQRDLELQAASSRELIRKYFCSRIQQQAETTSEELGAVTVKASYRASEQKLRVELLSASSLLPLDSNGSSDPFVQLTLEPRHEFPELAARETQKHKKDLHPLFDETFEFLVPAEPCRKAGACLLLTVLDYDTLGADDLEGEAFLPLREVPGLSGSEEPGEVPQTRLPLTYPAPNGDPILQLLEGRKGDREAQVFVRLRRHRAKQASQHALRPAP

- binding [7]: no binding
- binding [8]: binds
B2: Flag-Munc13-4 (protein, UniProt Q70J99 1-1090)
chain: B1 chain
